Laboratory results as given in the supplement of paper PMC6206098.
± gives the uncertainty stated by the source. The sequences are guide strands of siRNAs; only the seed at positions 2 to 7 varies.

Tests used:
3LL = test: cell viability relative to siNT1 control; higher = less toxic; conditions: concentration: 10 nM; 96 h; Mus musculus;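 note: Luminescence-based viability of cells reverse transfected in 384-well plates with lipid-complexed siRNAs built on a non-toxic 19mer backbone whose passenger strand carries 2′-O-methyl groups at positions 1 and 2, triplicates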
H460 = test: cell viability relative to lipid-only control; HeyA8 human ovarian and H460 human lung cancer; M565 mouse liver and 3LL mouse lung cancer; siNT1 is a non-toxic control siRNA; higher = less toxic; conditions: concentration: 10 nM; 96 h; Homo sapiens
HeyA8 = test: as above; conditions: concentration: 10 nM; 96 h; Homo sapiens
M565 = test: as above; conditions: concentration: 10 nM; 96 h; Mus musculus
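Throughout, for cell viability relative to lipid-only control: reverse lipid transfection in 384-well plates, in triplicate, of duplexes on a non-toxic 19mer backbone with passenger strand 2′-O-methylated at positions 1 and 2, luminescence viability read-out.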

Sequence	cell viability (3LL)	cell viability (H460)	cell viability (HeyA8)	cell viability (M565)
UUCAAUAACAUGUAAACCAAA	100 ± 21%	62.5 ± 1.5%	96.9 ± 14%	103 ± 21%
UUCAAUCACAUGUAAACCAAA	61.9 ± 13%	60.6 ± 5.7%	65.7 ± 7.5%	91.4 ± 2.5%
UUCAAUGACAUGUAAACCAAA	68.8 ± 18%	76.5 ± 9.8%	91.8 ± 7%	93.3 ± 12%
UUCAAUUACAUGUAAACCAAA	94.7 ± 19%	64.8 ± 9.1%	86.5 ± 13%	111 ± 9.8%
UUCACAAACAUGUAAACCAAA	101 ± 22%	38.4 ± 6.5%	89.1 ± 14%	88 ± 14%
UUCACACACAUGUAAACCAAA	36.5 ± 10%	35.6 ± 4.8%	68.2 ± 9.3%	70.1 ± 10%
UUCACAGACAUGUAAACCAAA	70.9 ± 23%	23.6 ± 3.6%	84.5 ± 13%	75.2 ± 7.5%
UUCACAUACAUGUAAACCAAA	71.1 ± 17%	29.5 ± 3.9%	78.2 ± 11%	68.3 ± 8.3%
UUCACCAACAUGUAAACCAAA	82.8 ± 12%	48.9 ± 5.7%	92.8 ± 9.8%	77.6 ± 8.3%
UUCACCCACAUGUAAACCAAA	34.9 ± 5.5%	60.4 ± 8.4%	67.3 ± 3.3%	63.4 ± 12%
UUCACCGACAUGUAAACCAAA	101 ± 19%	57.6 ± 8.5%	85.2 ± 6%	91.4 ± 13%
UUCACCUACAUGUAAACCAAA	20.3 ± 7.3%	63.1 ± 12%	69 ± 7.8%	71.9 ± 5.5%
UUCACGAACAUGUAAACCAAA	107 ± 17%	50.6 ± 1.8%	86.5 ± 14%	88.2 ± 6.9%
UUCACGCACAUGUAAACCAAA	58.8 ± 15%	38.2 ± 3.9%	71.4 ± 9.5%	42.4 ± 12%
UUCACGGACAUGUAAACCAAA	90.9 ± 23%	33.1 ± 3%	83.5 ± 11%	41.7 ± 7.5%
UUCACGUACAUGUAAACCAAA	103 ± 12%	66 ± 7.4%	104 ± 14%	45.9 ± 14%
UUCACUAACAUGUAAACCAAA	105 ± 18%	74.6 ± 11%	101 ± 16%	95.2 ± 12%
UUCACUCACAUGUAAACCAAA	29.1 ± 2.2%	33.9 ± 5.7%	73.3 ± 4.1%	77.1 ± 15%
UUCACUGACAUGUAAACCAAA	98 ± 14%	59.8 ± 9.9%	90.4 ± 14%	133 ± 14%
UUCACUUACAUGUAAACCAAA	88.3 ± 19%	54.1 ± 4.6%	70.3 ± 4.5%	93.8 ± 11%

Sequence	cell viability (3LL)	cell viability (H460)	cell viability (HeyA8)	cell viability (M565)
UUCAGAAACAUGUAAACCAAA	102 ± 13%	59.3 ± 0.66%	73.4 ± 14%	82.3 ± 7.9%
UUCAGACACAUGUAAACCAAA	29.8 ± 4%	33 ± 0.83%	45.4 ± 3.4%	54.7 ± 0.66%
UUCAGAGACAUGUAAACCAAA	94.7 ± 17%	54.5 ± 6%	72.6 ± 8.6%	38.6 ± 6.4%
UUCAGAUACAUGUAAACCAAA	73.9 ± 17%	71.5 ± 9.2%	55.3 ± 10%	31.7 ± 9.3%
UUCAGCAACAUGUAAACCAAA	67.7 ± 19%	56.4 ± 4.8%	78 ± 13%	84 ± 10%
UUCAGCCACAUGUAAACCAAA	10.9 ± 6.1%	18.7 ± 2.7%	26.4 ± 6.8%	51.2 ± 14%
UUCAGCGACAUGUAAACCAAA	94 ± 8.3%	71.4 ± 7.6%	75.2 ± 12%	113 ± 15%
UUCAGCUACAUGUAAACCAAA	11.6 ± 1.2%	34.2 ± 2.3%	33.7 ± 5.6%	49 ± 2.4%
UUCAGGAACAUGUAAACCAAA	90.2 ± 20%	68 ± 12%	88.8 ± 14%	44.5 ± 2.8%
UUCAGGCACAUGUAAACCAAA	21.1 ± 2.2%	29.5 ± 3%	22 ± 3.4%	18.7 ± 3.6%
UUCAGGGACAUGUAAACCAAA	41.3 ± 7.6%	68.3 ± 4%	75.7 ± 15%	51.7 ± 9.8%
UUCAGGUACAUGUAAACCAAA	36.7 ± 16%	42.4 ± 4.3%	62.2 ± 1.5%	19.4 ± 4.4%
UUCAGUAACAUGUAAACCAAA	94.2 ± 7.9%	75.7 ± 13%	91.5 ± 12%	88.7 ± 5.8%
UUCAGUCACAUGUAAACCAAA	29.8 ± 1.4%	56.8 ± 1.4%	41.9 ± 3.6%	34.8 ± 3.2%
UUCAGUGACAUGUAAACCAAA	105 ± 19%	62.4 ± 5.3%	44.6 ± 1.8%	91.6 ± 5.1%
UUCAGUUACAUGUAAACCAAA	45.1 ± 8.9%	46.6 ± 2.4%	69.9 ± 7.3%	24.1 ± 6.7%
UUCAUAAACAUGUAAACCAAA	95.4 ± 6.2%	51.6 ± 6.7%	107 ± 18%	96.7 ± 14%
UUCAUACACAUGUAAACCAAA	62.9 ± 4.7%	50.6 ± 1.1%	88.6 ± 7%	103 ± 12%
UUCAUAGACAUGUAAACCAAA	67.6 ± 2.8%	40.9 ± 7.5%	80.3 ± 1.9%	53.9 ± 7.5%
UUCAUAUACAUGUAAACCAAA	90.3 ± 14%	55.9 ± 5.7%	84.2 ± 7.5%	67.5 ± 12%

Sequence	cell viability (3LL)	cell viability (H460)	cell viability (HeyA8)	cell viability (M565)
UUCAUCAACAUGUAAACCAAA	64 ± 15%	60 ± 4.1%	66.5 ± 8.1%	56.6 ± 15%
UUCAUCCACAUGUAAACCAAA	10.6 ± 0.35%	53.1 ± 7%	27.7 ± 5.5%	25 ± 5.5%
UUCAUCGACAUGUAAACCAAA	84.1 ± 21%	69.8 ± 8.1%	74.9 ± 15%	83.9 ± 6.8%
UUCAUCUACAUGUAAACCAAA	32.9 ± 11%	51.6 ± 3.3%	27 ± 4.1%	41.5 ± 9.5%
UUCAUGAACAUGUAAACCAAA	79.5 ± 21%	45.7 ± 6%	87.5 ± 12%	100 ± 14%
UUCAUGCACAUGUAAACCAAA	12.5 ± 2.3%	39 ± 0.89%	32.7 ± 1.6%	26.1 ± 5.1%
UUCAUGGACAUGUAAACCAAA	66.8 ± 20%	41.3 ± 2.8%	73.5 ± 10%	26.4 ± 3%
UUCAUGUACAUGUAAACCAAA	48.4 ± 12%	52.5 ± 8.8%	70.1 ± 5.5%	30.6 ± 5.3%
UUCAUUAACAUGUAAACCAAA	88.9 ± 1.8%	72.8 ± 9.1%	95.9 ± 8.4%	72.1 ± 9.1%
UUCAUUCACAUGUAAACCAAA	80.4 ± 10%	61.6 ± 5%	70.9 ± 2.6%	40 ± 7.9%
UUCAUUGACAUGUAAACCAAA	78.3 ± 9%	67.3 ± 8%	97.6 ± 3.3%	54.7 ± 3.8%
UUCAUUUACAUGUAAACCAAA	58.7 ± 5.1%	63.7 ± 8.7%	57.5 ± 6.9%	73.4 ± 14%
UUCCAAAACAUGUAAACCAAA	109 ± 19%	77.4 ± 12%	96.6 ± 11%	99.5 ± 6.9%
UUCCAACACAUGUAAACCAAA	93 ± 22%	55.9 ± 1.1%	36.7 ± 2.4%	70.1 ± 6%
UUCCAAGACAUGUAAACCAAA	113 ± 17%	52.5 ± 5.5%	99.9 ± 15%	93.8 ± 3.6%
UUCCAAUACAUGUAAACCAAA	107 ± 12%	94.6 ± 9.1%	85.3 ± 19%	92 ± 10%
UUCCACAACAUGUAAACCAAA	106 ± 17%	32.9 ± 2.5%	96.5 ± 12%	107 ± 19%
UUCCACCACAUGUAAACCAAA	38.4 ± 4.9%	22.6 ± 4.3%	49.8 ± 4.4%	22.8 ± 3.6%
UUCCACGACAUGUAAACCAAA	105 ± 12%	31.7 ± 2.9%	97.2 ± 12%	58.7 ± 5.9%
